Assay results reported in the supplement of paper PMC10126150.
Sequences with one replicate were seen in a single cluster, so their values are uncertain.

tested on: ATP; test: switch fluorescence ratio, 500 uM ATP over buffer (Cy3 cluster intensity, sum of 5 cycles each) (fold (ratio)); higher = stronger signal-on switching upon ATP binding; sequences stand for … in TCGTCGGCAGCGTCAGATGTGTATAAGAGACAGTTTTTTTTTTTTTTTTTTTTTTTTT…TC; settings: aptamer strand: ATP DNA aptamer (quencher-CACCTGGGGGAGTATTGCGGAGGAAGG + anchor), 100 nM annealed; ATP concentration: 500 uM; one replicate
Procedure, shortened: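 Values give the fluorescence ratio for each switch-domain sequence, averaged from per-cluster ratios of summed target-cycle to summed buffer-cycle Cy3 intensity. The Cy3-labelled switching-strand clusters sat on a modified Illumina MiSeq flow-cell, were annealed to 100 nM quencher-labelled ATP aptamer, and were imaged in selection buffer, then after 15 min with 500 uM ATP at 22 °C. Five cycles ran with NaOH stripping and re-annealing between them, and clusters outside 100-1000 RFU were excluded.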
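Note: ATP exposure 15 min at 22 °C before imaging.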

Sequence | switch fluorescence ratio
ACGGCTAGAG | 1.06
ACGGCTGCTT | 1.11
ACGGGAAGCT | 0.99
ACGGGACGTT | 0.933
ACGGGAGCGG | 0.99
ACGGGAGGGC | 1.04
ACGGGAGTCG | 1.03
ACGGGATTCA | 1.09
ACGGGCACCA | 1.02
ACGGGCCGAA | 0.967
ACGGGCTAAG | 1.02
ACGGGCTTGA | 1.07
ACGGGGACGT | 0.987
ACGGGTAAGG | 0.977
ACGGGTAT | 1.3
ACGGGTATCA | 0.995
ACGGTAAGGT | 1.1
ACGGTGAGA | 0.995
ACGGTGTGCC | 1.01
ACGGTTCAAA | 1.01
ACGGTTGGTA | 1.02
ACGGTTTGAA | 1
ACGGTTTTT | 1.01
ACGTACTCCC | 1.52
ACGTACTCCT | 1.41

Sequence | switch fluorescence ratio
ACGTACTCGT | 1.58
ACGTAGCCAG | 1.01
ACGTAGTCTT | 1.02
ACGTATGTTC | 0.998
ACGTCAGAAC | 1.22
ACGTCAGACT | 1.09
ACGTCAGGAG | 1.05
ACGTCGTACT | 1.09
ACGTCTCCGA | 1.09
ACGTGATGGC | 1.05
ACGTGATGTG | 1
ACGTGCAGCT | 0.992
ACGTGCGGTG | 1.03
ACGTGGAAGT | 0.969
ACGTGGATCG | 1.13
ACGTGGGTTT | 0.963
ACGTGGTCAA | 0.97
ACGTGTAAGA | 0.962
ACGTGTACAG | 1.04
ACGTGTGCT | 0.935
ACGTGTGCTC | 1.04
ACGTTAGCAG | 1
ACGTTCACAT | 1.31
ACGTTCACTT | 1.3
ACGTTCGAGC | 1.1

Sequence | switch fluorescence ratio
ACGTTGACAA | 1.29
ACGTTGAGGC | 1.12
ACTAAAGGTT | 1.08
ACTAAGGGTT | 1.01
ACTAATGAGA | 1
ACTAATGTAC | 1.13
ACTAATTGGG | 0.993
ACTAATTGTG | 0.979
ACTACATCA | 1.05
ACTACCGTAC | 1.68
ACTACCGTTA | 1.17
ACTACGAAAC | 2.14
ACTACGAGAG | 1.02
ACTACTTCAT | 1.06
ACTACTTTC | 1.08
ACTAGAGGGT | 1.05
ACTAGATGAA | 1.01
ACTAGCCGGT | 1
ACTAGCCTCG | 0.982
ACTAGCGCGC | 1.02
ACTAGGAGGC | 1.08
ACTAGGATGT | 0.989
ACTAGGGGAT | 1.01
ACTAGGGGTA | 1.01
ACTAGTGGCA | 1.02

Sequence | switch fluorescence ratio
ACTAGTTTCC | 0.996
ACTATAGTCG | 1.07
ACTATCGCTT | 1.2
ACTATGTGGG | 0.98
ACTATTCCGA | 1.05
ACTATTTCCG | 0.967
ACTCAAACAT | 1.14
ACTCACTAAT | 1.2
ACTCACTGCG | 1.13
ACTCAGACGT | 1.05
ACTCAGAGCC | 1.05
ACTCAGCGAC | 3
ACTCATGATT | 1.04
ACTCCAACTC | 1.94
ACTCCCTTCT | 1.27
ACTCCGATGG | 2.54
ACTCCTATAA | 1.34
ACTCGACCCT | 1.25
ACTCGACGCG | 1.01
ACTCGACGTG | 0.931
ACTCGAGAAT | 1.03
ACTCGAGCAT | 1.41
ACTCGCGGAA | 1.01
ACTCGCGTAA | 1.39
ACTCGGAGCT | 1.15

Sequence | switch fluorescence ratio
ACTCGGATTT | 0.986
ACTCGTTGCG | 1.17
ACTCTACGGC | 1.19
ACTCTCAATA | 3.28
ACTCTCGTT | 1.04
ACTCTGGTCT | 1.02
ACTCTTGGGG | 0.992
ACTGACTAGG | 0.983
ACTGAGACGT | 1.01
ACTGAGATAA | 1.04
ACTGAGGGCT | 1.06
ACTGAGTTA | 1.03
ACTGATGCAT | 1.06
ACTGATGGCT | 1.05
ACTGATTGGT | 1.03
ACTGCAAATA | 1.23
ACTGCACGTA | 1.23
ACTGCCCAAG | 1.1
ACTGCCCCCA | 1.53
ACTGCTTATG | 0.962
ACTGGAACCC | 1.12
ACTGGAAGGA | 1.03
ACTGGATCTC | 1.01
ACTGGCCCTG | 1.05
ACTGGCTAGG | 1.01

Sequence | switch fluorescence ratio
ACTGGCTTTC | 1.04
ACTGGGCCAC | 1.08
ACTGGTAGCA | 1.05
ACTGTAAAAT | 1.05
ACTGTCCGAA | 0.991
ACTGTCGATC | 1
ACTGTCTGGG | 1
ACTGTGAATG | 0.998
ACTGTGACAA | 1.09
ACTGTGAGGC | 1.01
ACTGTGATTG | 0.997
ACTGTGCGG | 1.02
ACTGTGCGTC | 1.02
ACTGTGTGG | 1
ACTGTTGCAT | 1.01
ACTGTTGGAC | 1.02
ACTGTTTGCA | 0.99
ACTTAAATAG | 1.02
ACTTAAGCCG | 1.08
ACTTAATAT | 1.07
ACTTACGCGC | 1.04
ACTTAGATAC | 1.45
ACTTAGCTGG | 0.985
ACTTAGTAAG | 0.998
ACTTATGGGC | 1.02

Sequence | switch fluorescence ratio
ACTTCAAGCT | 1.08
ACTTCAGCTG | 0.971
ACTTCGTCAC | 1.56
ACTTCGTCTG | 1.16
ACTTCTCGGG | 1.06
ACTTCTTGCG | 1.05
ACTTGCACCG | 1.25
ACTTGGATC | 1.03
ACTTGGTAGA | 0.969
ACTTGGTCA | 1.05
ACTTGGTCCG | 1.07
ACTTGTAAAA | 1.04
ACTTGTTACT | 1.04
ACTTTAACAT | 1.12
ACTTTCCGGT | 1.06
ACTTTGAATT | 1.07
ACTTTGCGTA | 1.01
ACTTTGGGC | 0.986
ACTTTGTACT | 1.01
ACTTTTCGGA | 1
ACTTTTTGCG | 0.987
ACTTTTTTGG | 0.962
AGAAAACGAC | 0.998
AGAAAACGGC | 0.992
AGAAAACTTT | 1.04

Sequence | switch fluorescence ratio
AGAAAATACG | 1
AGAAAGCAAC | 1.09
AGAACAACCC | 1.05
AGAACCGCGT | 1.02
AGAACCGTGA | 1.05
AGAACGAGGA | 1.04
AGAACGCAGA | 1.04
AGAAGAGAAG | 1.14
AGAAGAGGG | 1.02
AGAAGAGTGG | 1.03
AGAAGATCAA | 0.967
AGAAGCATAA | 1.14
AGAAGCGCTT | 0.941
AGAAGCGTGT | 1
AGAAGCTCGC | 0.985
AGAAGGCACT | 0.972
AGAAGGCTGA | 0.987
AGAAGGGTTT | 0.959
AGAAGTGACC | 1.1
AGAAGTGCGT | 1.04
AGAATAGCTG | 1.05
AGAATATCAG | 0.989
AGAATCACGG | 1.07
AGAATTAGAA | 0.967
AGAATTTGAA | 0.971
